Experimental data from publication PMC7819943, “Rice protein-binding microarrays: a tool to detect cis-acting elements near promoter regions in rice”.
This is one part of the list.

Target: T1, OsWOX13 (Oryza sativa, UniProt Q5QMM3 1-267)
T1 sequence: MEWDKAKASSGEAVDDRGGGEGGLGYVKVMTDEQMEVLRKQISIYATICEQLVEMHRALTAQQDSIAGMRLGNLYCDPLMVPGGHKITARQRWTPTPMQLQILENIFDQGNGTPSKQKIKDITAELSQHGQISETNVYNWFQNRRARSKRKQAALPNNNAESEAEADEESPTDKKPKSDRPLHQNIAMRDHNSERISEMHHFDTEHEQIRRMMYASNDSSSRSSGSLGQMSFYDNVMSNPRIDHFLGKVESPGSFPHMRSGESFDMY
Test: protein-binding microarray (RPBM); PBS, 2% BSA, 51.3 ng/ul salmon testes DNA, 50 uM zinc acetate, 200 nM TF, 25 C, 1 h; high values mean tight binding
Settings: protein: recombinant; tags: N-terminal polyhistidine and DsRed monomer fusion (pET32a); label: CyDye5-dUTP incorporated in the synthesized complementary strand; 3' TTTTT single-stranded linker to array surface; dsDNA, one strand shown
Outline: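 Transcription factors were made in E. coli BL21-CodonPlus as N-terminal fusions to a polyhistidine tag and DsRed, then purified on Ni–NTA. After primer extension with Cy5-dUTP and blocking with 2% BSA, a custom Agilent array was exposed for 1 h at 25 °C to 200 nM protein in PBS, 2% BSA, salmon testes DNA and 50 µM zinc acetate. Washed arrays were scanned on an Axon 4000B, and the binding signal is per-feature fluorescence intensity in arbitrary units.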

Sequence | binding signal
CAATAAATTTGAATAGCAATTGGTATATGTCATATCTGGTCGGAGTCACCTAGTGCAG | 14900 fluorescence intensity (a.u.)
TGCACATTGATAAACTGTTACATTATCCAGCAAAATTTCTCGGAGTCACCTAGTGCAG | 4490 fluorescence intensity (a.u.)
ATATCTAATTTATCAACAAAGTTTGCTAAATTTGGATGTCCGGAGTCACCTAGTGCAG | 13300 fluorescence intensity (a.u.)
TTACAAAAGAATTAATTACCAGATCATTTTAAAATAAGCACGGAGTCACCTAGTGCAG | 6220 fluorescence intensity (a.u.)
ACCAAGGATAATTAATTCTACTTATCACCCATTTAAACATCGGAGTCACCTAGTGCAG | 14900 fluorescence intensity (a.u.)
TGATGATTTGATTTGATTTGATTCAATCTCCAAATCGATCCGGAGTCACCTAGTGCAG | 65100 fluorescence intensity (a.u.)
TAGATTGATGGTTGCTGGCTTATAAATAACAGCTAGCCATCGGAGTCACCTAGTGCAG | 27000 fluorescence intensity (a.u.)
AGTAATTTACATATATTATAGAAATATATTATAGAAGTAACGGAGTCACCTAGTGCAG | 14500 fluorescence intensity (a.u.)
TTGCTGATAAAGGGATTGATGACCTTGTACATAAGGACTACGGAGTCACCTAGTGCAG | 8190 fluorescence intensity (a.u.)
CGTCAAAATTAGAAGTTTGACTAAAATTGAAAGTTTGAAGCGGAGTCACCTAGTGCAG | 6040 fluorescence intensity (a.u.)
AAAATATATTGACTGTTGGATTTAATGAAATTTGGTGTTACGGAGTCACCTAGTGCAG | 25100 fluorescence intensity (a.u.)
AATGACTGACTCCATTAATTCATCCAAACTGTACAGCTAGCGGAGTCACCTAGTGCAG | 33900 fluorescence intensity (a.u.)
CCACATAATTGTTAATTAATAATAAAGCCTCCAGATTATACGGAGTCACCTAGTGCAG | 25500 fluorescence intensity (a.u.)
TGAATTTTGTTGATTGGTCGGAGCTTGGGGTTGTGTATGGCGGAGTCACCTAGTGCAG | 32800 fluorescence intensity (a.u.)
GTTGCAAATTGTATGATTTGTATCATATACCTTTTGAACCCGGAGTCACCTAGTGCAG | 15600 fluorescence intensity (a.u.)
TTTGGCTTCAATCTAAACGTAACTTTACCTTACCAAAATTCGGAGTCACCTAGTGCAG | 3360 fluorescence intensity (a.u.)
TCCGTAAATTTGTCTTCTACTATTACAGGCTTCCTTTGAACGGAGTCACCTAGTGCAG | 9240 fluorescence intensity (a.u.)
GTCTTAATTGAATGCATCAATTATACTTTTGCAGGAGTTTCGGAGTCACCTAGTGCAG | 64900 fluorescence intensity (a.u.)
GCTTATATAATTGCATATAACATAGGTAGCTACAAGGATGCGGAGTCACCTAGTGCAG | 16100 fluorescence intensity (a.u.)
TCTCAATCAAAATTATTTAGATTTGTCCAAATTTATAGAACGGAGTCACCTAGTGCAG | 24600 fluorescence intensity (a.u.)
GTGTGATTGTGATGTTGCATGGTTAGTATTGTGTGTGCGTCGGAGTCACCTAGTGCAG | 20800 fluorescence intensity (a.u.)

Sequence | binding signal
CCTAATTATCTTAGTAATCACCTTTCTTAGTCACCGGCAACGGAGTCACCTAGTGCAG | 21000 fluorescence intensity (a.u.)
AAATGTGACCATAATTGGTTTTATGTATTTGGATGGTATGCGGAGTCACCTAGTGCAG | 7960 fluorescence intensity (a.u.)
ACTAATTTAATCAGGCTTGCGCGAGCTTGGCGGCGCGTAGCGGAGTCACCTAGTGCAG | 21700 fluorescence intensity (a.u.)
TAGAATTACTTACTAAATTGCTTGTTATATTGAAGATATTCGGAGTCACCTAGTGCAG | 5790 fluorescence intensity (a.u.)
CTCTCAGTGTGTCAATCACCTTGTAACACACATCCACACACGGAGTCACCTAGTGCAG | 4660 fluorescence intensity (a.u.)
CTTAATTAATAGGGTATTAATAACCTCCCTAAAGTCATTGCGGAGTCACCTAGTGCAG | 60200 fluorescence intensity (a.u.)
TTCGCATCTCAACCAATCACAATCTTCTACCACTTAATTCCGGAGTCACCTAGTGCAG | 3880 fluorescence intensity (a.u.)
ATTTAAGTTAATTACATAATGTAAATCCTTCTCAACTTCTCGGAGTCACCTAGTGCAG | 8880 fluorescence intensity (a.u.)
ATCTTGTTACGAAGATTTAATTGTAACGAACACAATGGTGCGGAGTCACCTAGTGCAG | 4020 fluorescence intensity (a.u.)
GATTTTGATTTGCAGATGAAGCTGATCCGTGGAGAATTCTCGGAGTCACCTAGTGCAG | 12400 fluorescence intensity (a.u.)
GCACACAAATCAACAAAGTGACAGTACACAGATAACGAATCGGAGTCACCTAGTGCAG | 8420 fluorescence intensity (a.u.)
CGTGTCAATCACCATGTTCTCCCTCCTTTCCCTTGCCCACCGGAGTCACCTAGTGCAG | 27000 fluorescence intensity (a.u.)
TGTAAATTTTGCCACTAATTATTTCATTTTGTATTTGGGCCGGAGTCACCTAGTGCAG | 37700 fluorescence intensity (a.u.)
AAATCATTGACCAGCATTTATTTGTGATGACAATGACAAGCGGAGTCACCTAGTGCAG | 3990 fluorescence intensity (a.u.)
CATTAATTAAACTAACCCATCCATTGATTGATTATCAGTGCGGAGTCACCTAGTGCAG | 63500 fluorescence intensity (a.u.)
CCACCAAGTATAAATTATGATTAGTAGTAACTAATCATAGCGGAGTCACCTAGTGCAG | 10100 fluorescence intensity (a.u.)
TGCTAATGACGATTAATTAAGTTTAATAGATTCGTCTCGCCGGAGTCACCTAGTGCAG | 43000 fluorescence intensity (a.u.)
CAAGGGAGGTCGGGGAGGATGATTGGGTTGGGTAGAGCGGCGGAGTCACCTAGTGCAG | 4440 fluorescence intensity (a.u.)
AAATTAAATTGTTGAAGCCATTTTAATACTTATTGGTTGCCGGAGTCACCTAGTGCAG | 17700 fluorescence intensity (a.u.)
GCACAGAATAAATTTGAAACCGATACAAAATTATTGCTGTCGGAGTCACCTAGTGCAG | 5150 fluorescence intensity (a.u.)
GCGAAATTGTACAATCTAATATAGCTAACTAAATAGACAACGGAGTCACCTAGTGCAG | 19700 fluorescence intensity (a.u.)
